Screen size: about 230,000 compounds; about 3,600 (1.6%) were called active. This list was built around the results that the source calls inconclusive (neither active nor inactive); the mix of calls is not that of the screen. Calls come from the whole dose curve; as a rule, active = well fitted inhibition curve with a large enough effect (not every such curve was filed as active); inconclusive = small, poorly fitted or top-dose-only effect, or another doubt; inactive = no such curve, though single readings can be large or run the other way. A potency beside an inconclusive call is a rough fit, not a confirmed value.
Target: Lysine-specific demethylase 4E (Homo sapiens) (UniProt B2RXH2)
UniProt B2RXH2, sequence (B2RXH2 whole entry, looked up, the tested form may be a part): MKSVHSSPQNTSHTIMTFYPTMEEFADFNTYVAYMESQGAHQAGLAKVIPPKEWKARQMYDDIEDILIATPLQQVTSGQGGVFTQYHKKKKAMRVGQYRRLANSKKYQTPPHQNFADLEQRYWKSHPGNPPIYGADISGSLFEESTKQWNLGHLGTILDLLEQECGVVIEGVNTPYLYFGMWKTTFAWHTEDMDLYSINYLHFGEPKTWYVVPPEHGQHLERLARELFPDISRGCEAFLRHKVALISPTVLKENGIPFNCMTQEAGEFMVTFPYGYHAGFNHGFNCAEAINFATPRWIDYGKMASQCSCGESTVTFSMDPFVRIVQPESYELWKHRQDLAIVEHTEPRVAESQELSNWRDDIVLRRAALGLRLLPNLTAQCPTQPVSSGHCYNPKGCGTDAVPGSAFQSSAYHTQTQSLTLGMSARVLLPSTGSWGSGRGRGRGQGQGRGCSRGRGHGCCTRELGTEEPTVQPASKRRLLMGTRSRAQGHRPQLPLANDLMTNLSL
Assay: qHTS Assay for Inhibitors of Human Jumonji Domain Containing 2E (JMJD2E)
Settings: JMJD2E catalytic domain, FDH-coupled NADH fluorescence (FDH is formaldehyde dehydrogenase); series mostly up to 57.1 µM
Note: nearly all actives have a fitted effect of over 50% in size.
Potency is the fitted concentration of half-maximal effect; tags give direction and shape of the fitted curve.

Compound	Potency
CCCN1C(=O)COc2ccc(C(=O)c3ccccc3C(=O)O)cc21	inactive
Cn1c(/C=N/NC(=O)c2ccccc2)nc2ccccc21	inconclusive: 35.5 µM [inhibitor, single point]
Cc1ccc(-c2nc(NC(=O)CSc3nnc4scc(-c5ccccc5)n34)ns2)cc1	inconclusive: 39.8 µM [inhibitor, single point]
CCC1(CC)NC(=O)N(CC(=O)NCc2ccc3c(c2)OCO3)C1=O	inactive
COc1ccc(Cn2c(-c3ccc(OC)c(O)c3)nc3ccccc32)cc1O	inconclusive: 11.2 µM [inhibitor, partial curve]
C=CCOc1ccc(CNn2c(C)n[nH]c2=S)cc1OC	inconclusive: 39.8 µM [inhibitor, single point]
O=[N+]([O-])c1ccc(C=Nc2ccc(Cl)c([N+](=O)[O-])c2)s1	active: 14.1 µM
O=C(NC(=O)c1ccccc1F)Nc1nc(-c2cccs2)cc(C(F)(F)F)n1	inconclusive: 20 µM [inhibitor, partial curve]
O=C(NCc1cccnc1)c1cc2nc(-c3cccs3)cc(C(F)(F)Cl)n2n1	inconclusive: 35.5 µM [inhibitor, partial curve]
COc1ccccc1NC(=O)CN1CCN(CC(=O)Nc2ccc3c(c2)OCCO3)CC1	inactive
Cc1cc2[nH]c(=S)[nH]c2cc1C	inconclusive: 39.8 µM [inhibitor, single point]
CCOC(=O)C1=C(C)NC(=O)NC1/C(C)=C/c1ccccc1 (centres undefined)	inactive
O=C(O)Cn1ncc2c1-c1ccoc1CC2	inconclusive: 39.8 µM [inhibitor, single point]
CC1=[N+](C)c2ccc3ccccc3c2C1(C)C	inconclusive: 31.6 µM [inhibitor, partial curve]
N#C/C(=C/c1ccc(N2CCCCCC2)o1)c1ccc(Cl)cc1	inactive
O=C(O)CC(C(=O)O)N1C(=O)/C(=C/c2ccc(-c3nc4ccccc4s3)o2)SC1=S (centres undefined)	active: 2.82 µM
CCCNC(=O)Cn1c2ccccc2c2nc(=O)cc(C)n21	inconclusive: 28.2 µM [inhibitor, partial curve]
CCc1cc(=O)oc2cc(OCc3nn[nH]n3)ccc12	active: 20 µM
COc1cccc(-c2ccc3ncnc(NC4CCNCC4)c3c2)c1	inconclusive: 39.8 µM [inhibitor, single point]
COC(=O)C1=CN(C(C)C)C=C(C(=O)OC)C1c1cc2c(cc1Br)OCO2	inconclusive: 17.8 µM [inhibitor, partial curve]
CN1CCN(c2ccc([N+](=O)[O-])cc2C(=O)c2ccc(Br)cc2)CC1	inactive
O=C(NCc1ccco1)c1ccccc1NC(=O)C1CC(=O)N(c2ccc(Cl)cc2)C1 (centres undefined)	inconclusive: 39.8 µM [inhibitor, single point]
O=[N+]([O-])c1ccc(N/N=C/c2cn(Cc3ccc(F)cc3)c3ccccc23)nc1	inactive
COc1ccc2[nH]c(-c3cccc(F)c3)cc(=O)c2c1	inconclusive: 31.6 µM [inhibitor, partial curve]
COc1ccc(NC(=O)CN2C(=O)/C(=C3\SC(=S)N(C4CCS(=O)(=O)C4)C3=O)c3ccccc32)cc1 (centres undefined)	inactive

Compound	Potency
Cc1ccc(Cn2cccc(NC(=O)NC3CCCCC3)c2=O)cc1	inconclusive: 35.5 µM [inhibitor, partial curve]
CCOc1nc(NCCO)nc(NCCC2=CCCCC2)n1	inactive
CCN1c2ccccc2-c2nc3ccccc3n2C1c1ccncc1 (centres undefined)	inconclusive: 28.2 µM [inhibitor, partial curve]
CCn1c(=NC(=O)c2ccco2)sc2cccc(F)c21	inconclusive: 39.8 µM [inhibitor, single point]
CCCc1cc(N2CCCC2)n2nc(C)c(-c3ccccc3)c2n1	inconclusive: 8.91 µM [inhibitor, single point]
CC(=O)Oc1c(C(=O)c2nnc(C)o2)c(=O)n(C)c2ccccc12	inconclusive: 22.4 µM [inhibitor, partial curve]
CCCN1C(=O)SC(CC(=O)Nc2ccccc2C)C1=O (centres undefined)	inactive
CCCNC(=O)c1c(C)cc(=O)oc1C	inactive
Cc1cccn2c(=O)c3cc(C(=O)NCCN4CCOCC4)n(Cc4ccccc4)c3nc12	inconclusive: 12.6 µM [inhibitor, partial curve]
COc1ccc(CN2CCNC(=O)C2CC(=O)N2CCCCO2)cc1OC (centres undefined)	inactive
COc1cc(NC(C)CCCN)c2ncccc2c1Oc1ccccc1 (centres undefined)	inconclusive: 11.2 µM [inhibitor, partial curve]
O=C(CC1NC(=S)NC1=O)c1ccc(Cl)cc1 (centres undefined)	inconclusive: 35.5 µM [inhibitor, single point]
c1ccc2c(NCC3CCCO3)nc(N3CCOCC3)nc2c1 (centres undefined)	inconclusive: 22.4 µM [inhibitor, partial curve]
COc1ccc(-c2cc(C(F)(F)F)n3nc(C(=O)NCc4ccco4)cc3n2)cc1	inconclusive: 35.5 µM [inhibitor, partial curve]
CCOC(=O)N1CCC(NCCNC(=O)c2ccccc2)CC1	inconclusive: 39.8 µM [inhibitor, single point]
COCCn1nnnc1CN1CCC(Cc2ccccc2)CC1	inactive
CCCCCCNC(=O)c1cc(-c2ccco2)nc2ccccc12	inconclusive: 15.8 µM [inhibitor, partial curve]
COc1ccc(OC)c(/C=N/NC(=O)CCCC(=O)Nc2cccc(Br)c2)c1	inconclusive: 31.6 µM [inhibitor, partial curve]
O=c1cc(CSc2nnnn2-c2ccccc2)nc(Nc2ccc(F)cc2)[nH]1	inactive
O=c1cc(/C=C/c2c(F)cccc2Cl)[nH]c2ccccc12	inconclusive: 14.1 µM [inhibitor, partial curve]
Cc1ccc2[nH]c3c(=O)n(Cc4ccco4)cnc3c2c1	inconclusive: 10 µM [inhibitor, partial curve]
Clc1ccccc1-c1nn2c(COc3ccccc3)nnc2s1	inconclusive: 28.2 µM [inhibitor, single point]
CCn1c(C)[n+](CCOC(C)=O)c2cc(Cl)c(Cl)cc21	active: 15.8 µM
O=C(NN=C1CCC(=NNC(=O)c2ccccn2)CC1)c1ccccn1	inactive
Nc1c(Cl)ncnc1N/N=C/c1ccccn1	active: 20 µM

Compound	Potency
CCCC(=O)NC(c1ccccc1Cl)c1c(O)ccc2ccccc12 (centres undefined)	inconclusive: 31.6 µM [inhibitor, partial curve]
CCCCNC(=O)C(CC)Sc1nc2sc(C(=O)OC)c(C)c2c(=O)n1N (centres undefined)	inconclusive: 6.31 µM [inhibitor, single point]
Cc1ccc2c(c1)c1c(n2CC(O)Cn2c(C)nc3ccccc32)C(=O)CCC1 (centres undefined)	inconclusive: 20 µM [inhibitor, partial curve]
CCN(CC)Cc1cc(O)c(CN(CC)CC)cc1O	inconclusive: 25.1 µM [inhibitor, partial curve]
O=[N+]([O-])c1cc(/C=N/Nc2nc3ccccc3[nH]2)c(O)cc1O	inactive
COc1ccc(N2CCN(C(=O)c3cccc(Br)c3)CC2)c([N+](=O)[O-])c1	inactive
CCOc1cccc2cc(-c3nnc(NCc4ccco4)s3)c(=O)oc12	inconclusive: 22.4 µM [inhibitor, single point]
O=C1c2ccccc2NC(c2ccncc2)N1c1ccccn1 (centres undefined)	inconclusive: 31.6 µM [inhibitor, partial curve]
O=C1CSC(c2cn(-c3ccccc3)nc2-c2cc3ccccc3oc2=O)N1Cc1ccccc1 (centres undefined)	inconclusive: 28.2 µM [inhibitor, partial curve]
COc1ccccc1CC(=O)NCC1CCCO1 (centres undefined)	inactive
CCOC(=O)/C(=C\C=C1/Sc2ccccc2N1CC)C(C)=O	inactive
CN1CCc2c(sc3c2C(=O)NC(c2ccco2)N3)C1 (centres undefined)	inconclusive: 31.6 µM [inhibitor, partial curve]
CN(C)/C=N/c1nc2nccc(-c3cccs3)n2n1	inconclusive: 28.2 µM [inhibitor, partial curve]
COc1ccc(-c2csc(NC(=O)c3ccc(S(=O)(=O)N4CCc5ccccc5C4)cc3)n2)cc1	inconclusive: 31.6 µM [inhibitor, single point]
COc1ccc(C(=O)NCCSC2CCCCC2)cc1	inactive
O=S1(=O)CCN2C=C(Br)C=C(Br)C2=N1	inconclusive: 28.2 µM [inhibitor, partial curve]
C/C(=N\NC(=O)CSc1ncccn1)c1ccc2c(c1)OCCO2	inactive
O=C(COC(=O)CC12CC3CC(CC(C3)C1)C2)Nc1ncc(Cl)cc1Cl	inactive
Cc1ccc(NC(=S)NNC(=O)c2ccccc2O)c(C)c1	inconclusive: 4.47 µM [inhibitor, single point]
CN(C)CCCN1C(=O)C(=O)/C(=C(/O)c2ccncc2)C1c1ccccc1 (centres undefined)	inconclusive: 35.5 µM [inhibitor, single point]
CC1(C)Cc2c(oc3ncn4ncnc4c23)CO1	inactive
COc1ccc(/C=C/C(=O)c2cc(Cl)cc(Cl)c2O)c(OC)c1	inconclusive: 39.8 µM [inhibitor, single point]
C/C(CCN1CCc2nc(-c3ccccc3)c(-c3ccccc3)cc2C1)=N\O[C@H](C)c1cn([C@H](CO)Cc2ccccc2)nn1	inconclusive: 17.8 µM [inhibitor, single point]
Cc1ccc(C(=O)O)cc1NC(=S)NC(=O)c1ccc([N+](=O)[O-])cc1Cl	inactive
